Experimental data as given in the supplement of paper PMC11417369.
± gives the standard deviation of the averaged measurements. The list shows a part of the results.

System: PfAP2-G AP2 domain (GST-tagged)
Assay: gcPBM binding intensity (ln(normalized median fluorescence intensity)); higher = stronger DNA binding
Outline: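 GST-tagged P. falciparum DNA-binding domains, expressed in E. coli (about 25 μg on average), were applied for 1 h to an Agilent 4 × 180k array of primer-extended double-stranded 36-bp intergenic genomic probes plus negative controls. The binding buffer was 1× PBS with 1% milk, 0.2 mg/ml BSA, 0.5% salmon testes DNA and 0.03% Triton X-100. Bound protein was detected with Alexa488 anti-GST antibody and scanned at 488 nm. Binding intensity is the highest Masliner-normalised natural-log median intensity across replicate spots of either probe orientation.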

Sequence | gcPBM binding intensity (ln)
TATCATGGGTGTATTTCACACACGGATAATCATTTA [CACACA_site8211] | 10.1 ± 0.28
AATAATAAAGATCAATGTACATAATAAAAAAAAAAA [XGTACX_site2692] | 10.9 ± 0.61
TTATACCATATTTATAGTACGTACAAATAAATCAAT [XGTACX_site4975] | 11.6 ± 0.93
AAGAAAAAAAAAAAAAGTACATGCAATATGGATCTT [XGTACX_site3106] | 11.3 ± 0.76
TTATTAAGTAAATCACATTTAATTTTTTTTTTTTTT [CACACA_negctrl_site1280] | 9.31 ± 0.3
CACATATAAATATTAACACACATAATGAGTTATATA [CACACA_site7316] | 9.79 ± 0.12
TTTTTATTGTTATAGTTATAATATATTATTTGATTA [XGTACX_negctrl_site27] | 9.67 ± 0.11
TTTTTTTTTTTTGTAACACACAATAATATAACATTA [CACACA_site3411] | 10 ± 0.49
AATAATTGTTAAAGCTGTACAATACTTATATAAGAA [XGTACX_site5729] | 11 ± 0.61
AAACAACATATATTAATATGTACATATATATAGATA [GTGCAC_negctrl_site229] | 11.2 ± 0.62
AATGGAAATTTTTCTTGTACACATATATGACATGTT [XGTACX_site1691] | 11.3 ± 0.86
TTTTTTTTTACTGCATGTACTTGATGTAAATAAATT [XGTACX_site3045] | 11.1 ± 0.78
TATAGAATAATCTATAAACACACAAACACAACAAAA [CACACA_site9374] | 10.4 ± 0.5
AAAAGATAATTATGCACACACACACCCCCACCCAAC [CACACA_site2570] | 11.6 ± 0.83
TTATAAATATAATTTTGTACATATATATATATATAC [XGTACX_site5064] | 10.8 ± 0.41
TTAGAACTATTTTATACATGCAGTTATTTAATACTT [TGCATGCA_site1039] | 9.905 ± 0.021
AATATGACGTAGTGGTGTACACACATGGTACCTTTA [XGTACX_site3147] | 11.7 ± 0.83
ACAACAATTCACTTGATGCACTAACCAAAAAAATAA | 10.12 ± 0.085
CACGCACGCAGACACACACACACACGCACATATATA [CACACA_site6303] | 10.5 ± 0.35
AACGTAAAACATATCTATCAAAATAAATCATTAATC [TGCATGCA_negctrl_site68] | 9.59 ± 0.33
AATATAATAATATTTTGTACATATCCTATGTATGAG [XGTACX_site8601] | 10.7 ± 0.23
ATTAAAATATAAGTCACACATATATATATATATATA [CACACA_site6145] | 10 ± 0.38

Sequence | gcPBM binding intensity (ln)
TATTTTTTTTTATTTTTTTTTATTTTGTTTTTTTAT [TGCATGCA_negctrl_site315] | 9.44 ± 0.071
ATATATTTTCCTTCAAGTACACATATAAATGTGTAT [XGTACX_site6633] | 11.4 ± 0.83
AAAAAAATAATCATCACACACGGAGAATGTCCAATA [CACACA_site5305] | 10.28 ± 0.078
ACATATATTTTTTTTTGTACATATAAATATATATAT [XGTACX_site6491] | 11.1 ± 0.48
TTTTTTTTTAAATGTTGTACATTATATTTGTGTATA [XGTACX_site8354] | 11.1 ± 0.73
GTATATTAATAAACATGTACACAATTTATTTATATT [XGTACX_site1012] | 11.5 ± 0.98
TTTTTTTTTTGAAGTGCATGTTACGATGAAAAAAAA [TGCATGCA_site64] | 10.4 ± 0.41
CTAAATAACTTAAGGTGTACGTTTCCAATAAAAAAA [XGTACX_site1742] | 11.4 ± 0.9
ACATATAAAATGATGCGTACATATTTGATCATATAC [XGTACX_site153] | 11.4 ± 0.94
TGTAGCCTGGAGAAGAGTACATAGTATCTGGTAGCT [XGTACX_site4943] | 11.2 ± 0.79
CGTATGTGCGGACATGCATGCAATATACAAGAAAAA [TGCATGCA_site145] | 11.2 ± 0.98
GAAAATATTTCCGTATGTACTTATTTTAGTCTACTA [XGTACX_site471] | 11.4 ± 1.1
AAAAAAAAAAAAAAATGTACAAATAAAGAAATATGA [XGTACX_site4371] | 10.9 ± 0.64
ATATATTAATAATTTTGTACGCATTTCCTTTTTATT [XGTACX_site1638] | 11.5 ± 1
TGACCTGTTCAGGTAACACACATATAAACACATACA [CACACA_site4186] | 10.2 ± 0.2
AATATTTTCTTGTACGCATGCACATCCAAATTATAT [TGCATGCA_site873] | 11.6 ± 0.83
TCTTAAAAGGGGAATGGAATGGAGAAAATGAAATAA [GTGCAC_negctrl_site30] | 9.84 ± 0.11
AGGTTCTTTTTAAATGGTACACATAATTTGAAGATA [XGTACX_site400] | 11.3 ± 0.83
GTGTATAGAATGGTTTCTTTTAAGGTTTTTATTTTT [CACACA_negctrl_site564] | 10.4 ± 0.26
ATACCCACTTAAAATACACACACACCGAAAAAAAAA [CACACA_site8867] | 10.3 ± 0.38
ATGAATACAAAATTATACAAAATTATCAAAAGTATG [CACACA_negctrl_site1453] | 9.88 ± 0.057
AAAATATATTTAAATTGTACACGTTACCATAACAAT [XGTACX_site2598] | 11.4 ± 0.89

Sequence | gcPBM binding intensity (ln)
TGCAGTCTGGAGAAACGTACATAGTATCTGGTAGCT [XGTACX_site4937] | 11.2 ± 0.78
ATACATAAATATATATGTACATATATATATATATAT [XGTACX_site1055] | 11.3 ± 0.78
CTTTTTATTTAGAACACACACAAAAAAAAAAAAAAA [CACACA_site1761] | 10.1 ± 0.51
TTTGTTATTTTTTATTGTACTTTTTTTCTTTCATAA [XGTACX_site4302] | 11.5 ± 0.73
ATTAAATGTTATATTTGTACATATTATATATATATA [XGTACX_site5095] | 10.9 ± 0.58
TCCATATTTGTTCACACACACACATATTTATATATA [CACACA_site3570] | 10.2 ± 0.15
ATACATAAATTTAGAAGTACATAACAAATTTTTAAA [XGTACX_site7448] | 11.4 ± 0.88
AATCAAAACAACAATAGTACATAAAAAAACAAAACA [XGTACX_site4181] | 11.2 ± 0.8
TTTTTTAAATGTATTAAAATTATATATATATATATA [GTGCAC_negctrl_site570] | 9.96 ± 0.61
TTACACATGAGAAAATGTACATATAATAAAATATGT [XGTACX_site904] | 11.1 ± 0.55
TTATATTTCAATCATATTGTCACAAGTCATATTTAT [GTGCAC_negctrl_site366] | 9.89 ± 0.14
AACAAAAAAAAAAAAAAAAAAAAAAAAAAAAAAATG [CACACA_negctrl_site1127] | 10 ± 0.33
ATGGACAAGTTAAACGCACACAAATATATACACCCA [CACACA_site8478] | 10.6 ± 0.39
AATAAAAAAAATAGCATACACACATATATACATATA [CACACA_site659] | 9.75 ± 0.028
TATAATAATAATTATACATGCATGAATATTTATATG [TGCATGCA_site811] | 9.82 ± 0.099
TCCTATATATAAATATTAATATATATGTATTGGTAT [GTGCAC_negctrl_site23] | 9.645 ± 0.049
AAAAAAAAAAAAAACACACACACAAATACAAATGGT [CACACA_site1721] | 10.29 ± 0.042
TTTCTTATTTTGGATTGTACGTATATTTTTCATTTT [XGTACX_site224] | 11.4 ± 0.78
TTTCCAAATACAACTACACACAAACAAAAGTTATAT [CACACA_site6544] | 10 ± 0.11
AAATTTAACAACTTCAAACACACAATATATATATAT [CACACA_site2092] | 10 ± 0.37
TATATATATATGTGCGTGCACGTTACCTTGCTGTTT | 10.5 ± 0.32
TTTTGAAGCTTTAAAACATATATATATATATATATA [CACACA_negctrl_site184] | 10.1 ± 0.9

Sequence | gcPBM binding intensity (ln)
AGCAAAACAAAAAAATTAAAATTAACATATAATCAT [GTGCAC_negctrl_site393] | 9.45 ± 0.28
AATAAGAGGATACATTGTACATAAAAAAAAAAAATA [XGTACX_site1815] | 11 ± 0.69
AACACATAATAAAATTGTACCCAACATTTCTTTTGA [XGTACX_site8061] | 11.1 ± 0.57
TATGTGAATAAATAAGCACACATAAACACATATATA [CACACA_site9359] | 9.995 ± 0.035
ATGTTCTTATTATTGGTGCAAGAATACACAAGAAAA | 10.4 ± 0.45
TATTGTTCTTATTTAGTGCATATATAATATAATATA [GTGCAC_site9827] | 10.3 ± 0.33
ATAAAAATTTAAAAAGAACACACGAAAGAAGGACTT [CACACA_site3929] | 10.5 ± 0.28
AACAAATACAGACACACACACACACCCAAAAAAAAA [CACACA_site515] | 10.4 ± 0.42
ATACAACAAAAATAAGCACACACAAATATACATACA [CACACA_site9201] | 10.07 ± 0.085
TATATAAACACGTACACACACATATCTGTATTTATA [CACACA_site5858] | 11.6 ± 0.93
AATACCTACCAAACATGTACATACGCTTCTCAAATA [XGTACX_site5535] | 11.2 ± 0.66
GTGAGCTCAGACTACACACACAAAGAAAAAAATAAA [CACACA_site1553] | 10.3 ± 0.42
ATATTTTTAGGTGATTATTATTCGGAGAAGCGAATT [CACACA_negctrl_site1097] | 9.73 ± 0.014
AAAAAAAAAAAAAAAAAAAAAAAAAAAAAATATGTG [GTGCAC_negctrl_site657] | 11.3 ± 0.61
GAAATATAATTTATTACACACATTTTAAAAAAATTC [CACACA_site1087] | 9.99 ± 0.3
TTCAACGTTTTGGAATGTACAGAAAGGTATCCATCA [XGTACX_site179] | 10.9 ± 0.59
TTTATAACATTTAAGAGTACAAAAAAATAAATAAAT [XGTACX_site1264] | 11.3 ± 0.79
TAAAAGATAAAATATGCATGTGTAATTTTTTTTTTT [TGCATGCA_site955] | 9.7 ± 0.071
TATTATTTACTTATTGCACACATATAAAATATATTT [CACACA_site9017] | 10.16 ± 0.042
ATGAACTAAACTAATCGTACAATAAGTTTTATTATA [XGTACX_site4891] | 11.1 ± 0.51
AAAAAAATATATAAATGTACATATTGTTTAATTAAT [XGTACX_site3794] | 11 ± 0.59
TCACACACTCTCAAAAGTACAAGAAGATTATGAAGA [XGTACX_site4748] | 11.1 ± 0.8
